The source of these data is the antibiotic and cytotoxicity screens of Wong et al. (2023).

Each structure is given as a SMILES string. The list shows a part of the results.

The assay has as its system S. aureus RN4220. The assay is described as follows: growth inhibition call (relative growth <= 0.2). The settings on record: 50 µM.
On to `Cc1ccc(S(=O)(=O)N(C)C[C@H]2Oc3ccc(NC(=O)Nc4cccc5ccccc45)cc3C(=O)N([C@H](C)CO)C[C@@H]2C)cc1`, for which the growth inhibition call is “inactive”. To `C[C@H](CO)N1C[C@H](C)[C@H](CN(C)S(=O)(=O)c2cccs2)Oc2ccc(NS(=O)(=O)c3ccccc3)cc2C1=O` belongs “inactive”; to `C[C@@H]1CCCCO[C@@H](CN(C)Cc2ccccc2)[C@@H](C)CN([C@H](C)CO)C(=O)c2cc(NC(=O)Cc3ccccc3)ccc2O1`, “inactive”; to `COc1ccccc1-c1cnc2c(c1)C(=O)N([C@H](C)CO)C[C@H](C)[C@H](CN(C)C(=O)c1ccncc1)O2`, “inactive”. Next, `CCOC(=O)[C@@H](C)n1ncn2cccc2c1=O`: “inactive”; `Cc1ccc(S(=O)(=O)N(C)C[C@H]2Oc3ccc(NS(=O)(=O)c4cccs4)cc3C(=O)N([C@@H](C)CO)C[C@H]2C)cc1`: “inactive”.

As for `O=c1[nH]cc(F)c(=O)[nH]1`, the growth inhibition call was “inactive”.

`CO[C@H]1CN(C)C(=O)c2cc(NS(=O)(=O)CC(F)(F)F)ccc2OC[C@@H](C)N(C(=O)c2ccc3c(c2)OCO3)C[C@@H]1C`: the growth inhibition call was “inactive”. Consider `CN(C)Cc1cn(CC[C@@H]2CC[C@@H](NS(=O)(=O)c3ccccc3)[C@@H](CO)O2)nn1`, for which the growth inhibition call is “inactive”.

As for `C[C@@H]1CCCCO[C@H](CN(C)C(=O)NC2CCCCC2)[C@H](C)CN([C@H](C)CO)C(=O)c2cc(NC(=O)Nc3cccc4ccccc34)ccc2O1`, the growth inhibition call is “inactive”. To `C[C@@H]1CN([C@@H](C)CO)C(=O)c2cc(NC(=O)Cn3cnnn3)ccc2O[C@@H]1CN(C)S(=O)(=O)c1ccc(Cl)cc1` belongs “inactive”.
